In all, about 310,000 compounds went through this assay and about 14,000 (4.5%) showed an effect of 50% or more. The effect is printed as a negative number. The list shows a part of the results.
target: human ether-à-go-go-related gene (hERG) potassium channel (human, UniProt Q12809); assay: primary screen, population patch clamp on CHO cells stably expressing hERG
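Also: peak tail current of the secondary pulse compared with the same well before compound.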

Chain of human ether-à-go-go-related gene (hERG) potassium channel (Q12809 whole entry, looked up): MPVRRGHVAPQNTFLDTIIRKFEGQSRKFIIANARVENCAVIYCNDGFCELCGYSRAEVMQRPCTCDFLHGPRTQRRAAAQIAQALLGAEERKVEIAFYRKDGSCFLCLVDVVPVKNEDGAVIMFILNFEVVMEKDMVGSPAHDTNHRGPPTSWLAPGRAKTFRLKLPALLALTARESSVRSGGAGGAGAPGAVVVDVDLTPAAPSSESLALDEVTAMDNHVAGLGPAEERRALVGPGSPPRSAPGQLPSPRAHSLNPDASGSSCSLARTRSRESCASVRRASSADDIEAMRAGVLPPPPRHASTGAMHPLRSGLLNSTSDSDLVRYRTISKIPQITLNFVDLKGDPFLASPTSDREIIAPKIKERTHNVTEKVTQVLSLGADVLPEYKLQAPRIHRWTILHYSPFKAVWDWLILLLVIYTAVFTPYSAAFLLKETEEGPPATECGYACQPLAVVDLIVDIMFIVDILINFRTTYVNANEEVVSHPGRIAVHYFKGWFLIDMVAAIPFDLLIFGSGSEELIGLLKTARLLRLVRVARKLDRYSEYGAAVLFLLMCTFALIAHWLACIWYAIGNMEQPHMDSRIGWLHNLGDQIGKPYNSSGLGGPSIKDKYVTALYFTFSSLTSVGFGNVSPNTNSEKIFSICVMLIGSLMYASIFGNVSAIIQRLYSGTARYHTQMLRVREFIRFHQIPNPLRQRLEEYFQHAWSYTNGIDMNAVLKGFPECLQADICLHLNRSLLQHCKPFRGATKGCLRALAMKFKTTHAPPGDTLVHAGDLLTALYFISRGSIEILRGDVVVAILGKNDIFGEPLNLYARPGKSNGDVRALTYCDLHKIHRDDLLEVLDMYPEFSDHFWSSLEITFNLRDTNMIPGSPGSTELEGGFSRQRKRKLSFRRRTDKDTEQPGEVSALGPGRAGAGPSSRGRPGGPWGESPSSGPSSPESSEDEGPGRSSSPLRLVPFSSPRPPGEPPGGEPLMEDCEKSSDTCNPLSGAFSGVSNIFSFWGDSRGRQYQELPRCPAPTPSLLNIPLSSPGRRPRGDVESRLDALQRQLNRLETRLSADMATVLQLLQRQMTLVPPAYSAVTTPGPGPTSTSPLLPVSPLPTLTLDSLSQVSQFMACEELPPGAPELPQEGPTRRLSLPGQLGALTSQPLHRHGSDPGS

Q: `CSCCC(NC(=O)C1CCCC1)c1nnc2ccccn12` (centres unmarked) was tested. Which “hERG current change (%, negative = inhibition) at 10uM” value did it give?
A: 8.79%

Q: Which “hERG current change (%, negative = inhibition) at 10uM” value does the source give for `Cc1ccc(CC(=S)N2CCOCC2)cc1` here?
A: 6.06%

Q: How did the “hERG current change (%, negative = inhibition) at 10uM” value turn out when `COC(=O)c1cc(S(=O)(=O)NCC(C)c2ccccc2)cn1C` (centres unmarked) was run?
A: -3.55%

Q: `Cc1ccc(N2C(=O)c3oc4ccccc4c(=O)c3C2c2cccc(O)c2)nc1` (centres unmarked) was tested. Which “hERG current change (%, negative = inhibition) at 10uM” value did it give?
A: 5.45%

Q: With `C[C@@H]1NC(=O)OC1c1ccco1` (some centres unmarked) as the molecule, how does the “hERG current change (%, negative = inhibition) at 10uM” value read?
A: 3.2%

Q: `Cc1ccccc1-n1c(SCC(=O)c2c(N)n(C3CC3)c(=O)[nH]c2=O)nnc1N1CCOCC1` was tested. Which “hERG current change (%, negative = inhibition) at 10uM” value did it give?
A: -13.2%

Q: For `CCOc1ccccc1OCC(=O)NCCc1ccc(S(N)(=O)=O)cc1`, which “hERG current change (%, negative = inhibition) at 10uM” value is on record?
A: 10.9%

Q: For `Cc1cccc(-c2nnc(SCC#N)n2-c2ccccc2)c1`, which “hERG current change (%, negative = inhibition) at 10uM” value is on record?
A: -54.7%

Q: How did the “hERG current change (%, negative = inhibition) at 10uM” value turn out when `CCCCCc1nnc(NC(=O)c2ccc(N3CCCC3=O)cc2)s1` was run?
A: 4.25%

Q: `O=C(NNC(=O)c1ccccc1Cl)c1ccccc1Cl` was tested. Which “hERG current change (%, negative = inhibition) at 10uM” value did it give?
A: 4.11%

Q: How did the “hERG current change (%, negative = inhibition) at 10uM” value turn out when `CS(=O)(=O)N(CC(=O)N1CCC(C(N)=O)CC1)Cc1ccc(Cl)c(Cl)c1` was run?
A: -13.7%

Q: Which “hERG current change (%, negative = inhibition) at 10uM” value does the source give for `Cc1ccsc1/C=N/NC(=O)c1ccc(Cn2cc(Br)cn2)o1` here?
A: -4.25%

Q: With `Cc1ccccc1OCCCCCCN1CCNCC1.O=C(O)C(=O)O` as the molecule, how does the “hERG current change (%, negative = inhibition) at 10uM” value read?
A: -1.56%

Q: How did the “hERG current change (%, negative = inhibition) at 10uM” value turn out when `COc1ccc(C(=O)N2CCC(CCC(=O)Nc3cccc(C)c3)CC2)cc1` was run?
A: -68.3%

Q: `O=C(COC(=O)c1cccc(Oc2ccccc2)c1)NCc1ccco1` was tested. Which “hERG current change (%, negative = inhibition) at 10uM” value did it give?
A: 3.19%

Q: How did the “hERG current change (%, negative = inhibition) at 10uM” value turn out when `O=C(CCc1ccccc1)NNC(=O)C12CC3CC(CC(C3)C1)C2` was run?
A: -17.8%

Q: With `Cc1csc2ncnc(NNC(=O)c3ccc(Cl)cc3)c12` as the molecule, how does the “hERG current change (%, negative = inhibition) at 10uM” value read?
A: 9.22%

Q: Which “hERG current change (%, negative = inhibition) at 10uM” value does the source give for `CSc1ccc(S(=O)(=O)NCC(=O)OCC(=O)NCCc2ccccc2)cc1[N+](=O)[O-]` here?
A: 9.18%

Q: For `CC1CCCCC1NC(=O)COC(=O)c1ccc2ncsc2c1` (centres unmarked), which “hERG current change (%, negative = inhibition) at 10uM” value is on record?
A: 12.1%

Q: With `Cc1c(C(=O)OCC(=O)NCc2ccc3c(c2)OCO3)cccc1[N+](=O)[O-]` as the molecule, how does the “hERG current change (%, negative = inhibition) at 10uM” value read?
A: 0.534%

Q: Which “hERG current change (%, negative = inhibition) at 10uM” value does the source give for `CCc1ccc(NC(=O)CCCN2C(=S)NC(C)(C)CC2C)cc1` (centres unmarked) here?
A: -5.07%

Q: For `Oc1c(C=Nc2ccccc2Cl)[nH]c2ccccc12`, which “hERG current change (%, negative = inhibition) at 10uM” value is on record?
A: 9.95%

Q: `CC(NC(=O)C(C)(C)C)c1nc2ccccc2n1C` (centres unmarked) was tested. Which “hERG current change (%, negative = inhibition) at 10uM” value did it give?
A: 22%

Q: Which “hERG current change (%, negative = inhibition) at 10uM” value does the source give for `CC(C)CN(C(=O)COC(=O)CCCc1nc2ccccc2s1)c1c(N)n(Cc2ccccc2)c(=O)[nH]c1=O` here?
A: -10.5%

Q: With `CCC12CN3CCN(CC(C3)/C1=N/NC(N)=O)C2` as the molecule, how does the “hERG current change (%, negative = inhibition) at 10uM” value read?
A: 21%

Q: For `Cn1ncc(Cl)c1C(=O)NC1C2CC3CC(C2)CC1C3` (centres unmarked), which “hERG current change (%, negative = inhibition) at 10uM” value is on record?
A: 8.77%

Q: Which “hERG current change (%, negative = inhibition) at 10uM” value does the source give for `CSc1ccccc1C(=O)OCC(=O)NC1CCS(=O)(=O)C1` (centres unmarked) here?
A: 2.97%

Q: Which “hERG current change (%, negative = inhibition) at 10uM” value does the source give for `CCN(CC(=O)Nc1ccc(OC)cc1)C(=O)Cc1cccs1` here?
A: 6.49%

Q: Which “hERG current change (%, negative = inhibition) at 10uM” value does the source give for `CCn1c(CNC(=O)C23CC4CC(CC(C4)C2)C3)nnc1SC` here?
A: 15.3%

Q: For `CCCC(=O)Nc1ccccc1NC(=O)CN(C)S(=O)(=O)c1ccccc1`, which “hERG current change (%, negative = inhibition) at 10uM” value is on record?
A: 6.95%

Q: For `Cc1nc(-c2ccc(NS(=O)(=O)c3ccccc3)cc2)cs1`, which “hERG current change (%, negative = inhibition) at 10uM” value is on record?
A: 10.6%

Q: `CC(C)(C)OC(=O)NCCCC[C@H](NC(=O)c1nc[nH]c1C(=O)NC1CCN(C(=O)OC(C)(C)C)CC1)C(=O)OC(C)(C)C` was tested. Which “hERG current change (%, negative = inhibition) at 10uM” value did it give?
A: -0.245%

Q: Which “hERG current change (%, negative = inhibition) at 10uM” value does the source give for `O=C(O)Cn1cc(/C=C2\C(=O)NC(=O)N(c3ccc(Cl)cc3)C2=O)c2ccccc21` here?
A: 12.4%

Q: Which “hERG current change (%, negative = inhibition) at 10uM” value does the source give for `O=C1/C(=C/c2ccc(N3CCCC3)cc2)NC(=S)N1C1CC1` here?
A: -10%

Q: Which “hERG current change (%, negative = inhibition) at 10uM” value does the source give for `COc1ccc(/C=C/C(=O)OCC(=O)NCCNC(=O)COC(=O)/C=C/c2ccc(OC)cc2)cc1` here?
A: 20.6%

Q: Which “hERG current change (%, negative = inhibition) at 10uM” value does the source give for `Cc1ccc(-n2nc3c(=O)n(C(C)C(=O)NCc4ccc5c(c4)OCO5)nc(C)c3c2C)cc1` (centres unmarked) here?
A: 1.78%

Q: With `O=S(=O)(c1ccccc1)n1ccc2ccccc21` as the molecule, how does the “hERG current change (%, negative = inhibition) at 10uM” value read?
A: -6.14%

Q: For `CC(=O)c1ccc(-n2nnnc2SCC(=O)Nc2cccc(NC(=O)c3ccco3)c2)cc1`, which “hERG current change (%, negative = inhibition) at 10uM” value is on record?
A: 6.89%

Q: For `CCOC(=O)/C=C1\NC(=O)CS1`, which “hERG current change (%, negative = inhibition) at 10uM” value is on record?
A: 16.4%

Q: For `O=C(CCNS(=O)(=O)c1ccc(Cl)cc1)Nc1ccncc1`, which “hERG current change (%, negative = inhibition) at 10uM” value is on record?
A: 6.41%

Q: `CC(C)(C)OC(=O)CNC(=O)c1[nH]cnc1C(=O)N[C@@H](Cc1ccccc1)C(=O)OCc1ccccc1` was tested. Which “hERG current change (%, negative = inhibition) at 10uM” value did it give?
A: 12.7%

Q: For `CCN(CC)c1ccc(/C=N/NC(=O)c2ccoc2C)c(O)c1`, which “hERG current change (%, negative = inhibition) at 10uM” value is on record?
A: 0.0712%

Q: Which “hERG current change (%, negative = inhibition) at 10uM” value does the source give for `O=C(c1cnn(Cc2ccccc2)c1)N1CCN(S(=O)(=O)/C=C/c2ccccc2)CC1` here?
A: -34.4%

Q: For `Cc1ccc(-n2nnnc2SCC(=O)Nc2ncc(Cc3ccccc3Cl)s2)cc1`, which “hERG current change (%, negative = inhibition) at 10uM” value is on record?
A: 0.671%

Q: `COc1cccc(C2CC(c3cccs3)=NN2C(=O)CSc2nc3c(cnn3-c3ccc(F)cc3)c(=O)[nH]2)c1OC` (centres unmarked) was tested. Which “hERG current change (%, negative = inhibition) at 10uM” value did it give?
A: 6.18%

Q: With `O=C(c1ccc(N2CCCC2=O)cc1)N1CCCCCC1` as the molecule, how does the “hERG current change (%, negative = inhibition) at 10uM” value read?
A: 9.74%

Q: `Nn1c(CSc2ccccn2)nc2ccccc2c1=O` was tested. Which “hERG current change (%, negative = inhibition) at 10uM” value did it give?
A: 7.54%

Q: Which “hERG current change (%, negative = inhibition) at 10uM” value does the source give for `COc1ccccc1-c1nnc(SCC(=O)N2CCCCC2)o1` here?
A: 5.84%

Q: For `O=C(NCCc1cccnc1)C1CCC(=O)N(Cc2cccc(C(F)(F)F)c2)C1` (centres unmarked), which “hERG current change (%, negative = inhibition) at 10uM” value is on record?
A: -8.64%

Q: With `O=C(O)c1ccc(NC(=S)NC2CCCCC2)cc1` as the molecule, how does the “hERG current change (%, negative = inhibition) at 10uM” value read?
A: 13.6%

Q: For `CC(C)(C)c1ccc(C2C3=C(CCCC3=O)NC3=C2C(=O)c2ccccc23)cc1` (centres unmarked), which “hERG current change (%, negative = inhibition) at 10uM” value is on record?
A: -3.27%

Q: `CC(C)CC1c2[nH]c3ccccc3c2CCN1C(=O)C1CCOCC1` (centres unmarked) was tested. Which “hERG current change (%, negative = inhibition) at 10uM” value did it give?
A: 5.43%

Q: How did the “hERG current change (%, negative = inhibition) at 10uM” value turn out when `COc1cc(C(=O)NCC(=O)N/N=C/c2cccc(OC(=O)c3ccco3)c2)cc(OC)c1OC` was run?
A: 1.18%

Q: `O=C(O)c1ccc(NS(=O)(=O)c2ccc(N3C(=O)CCC3=O)cc2)cc1` was tested. Which “hERG current change (%, negative = inhibition) at 10uM” value did it give?
A: 2.04%

Q: Which “hERG current change (%, negative = inhibition) at 10uM” value does the source give for `CCOc1nc(NC(C)C)nc(NC(C)C)n1` here?
A: -2.17%

Q: Which “hERG current change (%, negative = inhibition) at 10uM” value does the source give for `C=CCn1c(-c2cccc3ccccc23)n[nH]c1=S` here?
A: -1.63%
